The other results are listed elsewhere or left out.
How the values were obtained:
Assay in all cases: glycan array binding signal (z-score within array); higher = stronger binding
Conditions in all cases: glycan notation: IUPAC condensed, linker removed
[1] = target: GlcNAc(b1-4)GlcNAc(b1-4)GlcNAc(b1-4)GlcNAc(b1-4)GlcNAc
How it was run: (§1)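 Columns mapping to the same glycan were averaged after glycan names were converted to IUPAC-condensed notation. The data come from 3228 arrays in the Consortium for Functional Glycomics database, limited to those with an available protein sequence. Binding is reported as a within-array Z-score averaged across arrays of one protein sequence and across linkers.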

[2] = target: GlcNAc(b1-4)GlcNAc(b1-4)GlcNAc(b1-4)GlcNAc(b1-4)GlcNAc(b1-4)GlcNAc
How it was run: as §1

[3] = target: GlcNAc(b1-4)[GlcNAc(b1-6)]GalNAc
How it was run: as §1

[4] = target: GlcNAc(b1-6)Gal(b1-4)GlcNAc
How it was run: as §1

GlcNAc(b1-6)GalNAc = target: GlcNAc(b1-6)GalNAc
How it was run: as §1

[5] = target: GlcNAc6S(b1-3)Gal(b1-4)GlcNAc
How it was run: as §1

Kdn(a2-3)Gal(b1-3)GalNAc = target: Kdn(a2-3)Gal(b1-3)GalNAc
How it was run: as §1

Kdn(a2-3)Gal(b1-3)GlcNAc = target: Kdn(a2-3)Gal(b1-3)GlcNAc
How it was run: as §1

Kdn(a2-3)Gal(b1-4)Glc = target: Kdn(a2-3)Gal(b1-4)Glc
How it was run: as §1

Kdn(a2-3)Gal(b1-4)GlcNAc = target: Kdn(a2-3)Gal(b1-4)GlcNAc
How it was run: as §1

[6] = target: Kdn(a2-3)Gal(b1-4)[Fuc(a1-3)]GlcNAc
How it was run: as §1

Kdn(a2-6)Gal(b1-4)GlcNAc = target: Kdn(a2-6)Gal(b1-4)GlcNAc
How it was run: as §1

[7] = target: Man(a1-2)Man(a1-2)Man(a1-3)Man
How it was run: as §1

[8] = target: Man(a1-2)Man(a1-2)Man(a1-6)[Man(a1-3)]Man
How it was run: as §1

Man(a1-2)Man(a1-3)Man = target: Man(a1-2)Man(a1-3)Man
How it was run: as §1

[9] = target: Man(a1-2)Man(a1-3)[Man(a1-2)Man(a1-6)]Man
How it was run: as §1

[10] = target: Man(a1-2)Man(a1-3)[Man(a1-2)Man(a1-6)]Man(a1-6)[Man(a1-2)Man(a1-2)Man(a1-3)]Man
How it was run: as §1

[11] = target: Man(a1-2)Man(a1-3)[Man(a1-2)Man(a1-6)]Man(a1-6)[Man(a1-2)Man(a1-2)Man(a1-3)]Man(b1-4)GlcNAc(b1-4)GlcNAc
How it was run: as §1

[12] = target: Man(a1-2)Man(a1-3)[Man(a1-6)]Man(a1-6)[Man(a1-2)Man(a1-3)]Man(b1-4)GlcNAc(b1-4)GlcNAc
How it was run: as §1

[13] = target: Man(a1-2)Man(a1-6)[Man(a1-3)]Man(a1-6)[Man(a1-2)Man(a1-2)Man(a1-3)]Man
How it was run: as §1

[14] = target: Man(a1-2)Man(a1-6)[Man(a1-3)]Man(a1-6)[Man(a1-2)Man(a1-2)Man(a1-3)]Man(b1-4)GlcNAc(b1-4)GlcNAc
How it was run: as §1

Man(a1-3)[Man(a1-6)]Man = target: Man(a1-3)[Man(a1-6)]Man
How it was run: as §1

[15] = target: Man(a1-3)[Man(a1-6)]Man(a1-6)[Man(a1-2)Man(a1-3)]Man(b1-4)GlcNAc(b1-4)GlcNAc
How it was run: as §1

[16] = target: Man(a1-3)[Man(a1-6)]Man(a1-6)[Man(a1-3)]Man
How it was run: as §1

[17] = target: Man(a1-3)[Man(a1-6)]Man(a1-6)[Man(a1-3)]Man(b1-4)GlcNAc(b1-4)GlcNAc
How it was run: as §1

[18] = target: Man(a1-3)[Man(a1-6)]Man(b1-4)GlcNAc(b1-4)GlcNAc
How it was run: as §1

[19] = target: Man(a1-3)[Man(a1-6)]Man(b1-4)GlcNAc(b1-4)[Fuc(a1-6)]GlcNAc
How it was run: as §1

Man(a1-6)Man = target: Man(a1-6)Man
How it was run: as §1

Man(b1-4)GlcNAc = target: Man(b1-4)GlcNAc
How it was run: as §1

MurNAc(b1-4)GlcNAc = target: MurNAc(b1-4)GlcNAc
How it was run: as §1

Neu5Ac(a2-3)Gal = target: Neu5Ac(a2-3)Gal
How it was run: as §1

[20] = target: Neu5Ac(a2-3)Gal(b1-3)GalNAc
How it was run: as §1

[21] = target: Neu5Ac(a2-3)Gal(b1-3)GalNAc(b1-3)Gal(a1-4)Gal(b1-4)Glc
How it was run: as §1

[22] = target: Neu5Ac(a2-3)Gal(b1-3)GalNAc(b1-4)[Neu5Ac(a2-3)]Gal(b1-4)Glc
How it was run: as §1

[23] = target: Neu5Ac(a2-3)Gal(b1-3)GalNAc(b1-4)[Neu5Ac(a2-8)Neu5Ac(a2-3)]Gal(b1-4)Glc
How it was run: as §1

[24] = target: Neu5Ac(a2-3)Gal(b1-3)GalNAc6S
How it was run: as §1

[25] = target: Neu5Ac(a2-3)Gal(b1-3)GlcNAc
How it was run: as §1

[26] = target: Neu5Ac(a2-3)Gal(b1-3)GlcNAc(b1-2)Man
How it was run: as §1

[27] = target: Neu5Ac(a2-3)Gal(b1-3)GlcNAc(b1-2)Man(a1-3)[GlcNAc(b1-4)][Neu5Ac(a2-3)Gal(b1-3)GlcNAc(b1-2)Man(a1-6)]Man(b1-4)GlcNAc(b1-4)GlcNAc
How it was run: as §1

[28] = target: Neu5Ac(a2-3)Gal(b1-3)GlcNAc(b1-2)Man(a1-3)[Neu5Ac(a2-3)Gal(b1-3)GlcNAc(b1-2)Man(a1-6)]Man(b1-4)GlcNAc(b1-4)GlcNAc
How it was run: as §1

[29] = target: Neu5Ac(a2-3)Gal(b1-3)GlcNAc(b1-3)Gal(b1-3)GlcNAc
How it was run: as §1

[30] = target: Neu5Ac(a2-3)Gal(b1-3)GlcNAc(b1-3)Gal(b1-4)GlcNAc
How it was run: as §1

[31] = target: Neu5Ac(a2-3)Gal(b1-3)GlcNAc(b1-3)GalNAc
How it was run: as §1

[32] = target: Neu5Ac(a2-3)Gal(b1-3)GlcNAc(b1-4)Gal(b1-4)Glc
How it was run: as §1

[33] = target: Neu5Ac(a2-3)Gal(b1-3)GlcNAc(b1-6)GalNAc
How it was run: as §1

B1: PFL (Pseudomonas fluorescens) (protein)
chain: MSKYAVANQWGGSSAPWHPGGTWVLGARDNQNVVAIEIKSGDGGKSFTGTMTYAGEGPIGFKAQRTGQNQYNVENQWGGNDAPWHPGGKWVIGGRDNQNVIALSVTSSDGGKNLSGTNTYANEGPIGFRGQIE
glycan array binding signal (z-score) [1]: -0.118
glycan array binding signal (z-score) [2]: -0.118
glycan array binding signal (z-score) [3]: -0.116
glycan array binding signal (z-score) [4]: -0.117
glycan array binding signal (z-score) (GlcNAc(b1-6)GalNAc): -0.111
glycan array binding signal (z-score) [5]: -0.113
glycan array binding signal (z-score) (Kdn(a2-3)Gal(b1-3)GalNAc): -0.056
glycan array binding signal (z-score) (Kdn(a2-3)Gal(b1-3)GlcNAc): -0.117
glycan array binding signal (z-score) (Kdn(a2-3)Gal(b1-4)Glc): -0.101
glycan array binding signal (z-score) (Kdn(a2-3)Gal(b1-4)GlcNAc): -0.107
glycan array binding signal (z-score) [6]: -0.115
glycan array binding signal (z-score) (Kdn(a2-6)Gal(b1-4)GlcNAc): -0.11
glycan array binding signal (z-score) [7]: -0.115
glycan array binding signal (z-score) [8]: -0.085
glycan array binding signal (z-score) (Man(a1-2)Man(a1-3)Man): -0.105
glycan array binding signal (z-score) [9]: -0.117
glycan array binding signal (z-score) [10]: -0.112
glycan array binding signal (z-score) [11]: 3.46
glycan array binding signal (z-score) [12]: 9.19
glycan array binding signal (z-score) [13]: -0.009
glycan array binding signal (z-score) [14]: 11.7
glycan array binding signal (z-score) (Man(a1-3)[Man(a1-6)]Man): -0.112
glycan array binding signal (z-score) [15]: 13.2
glycan array binding signal (z-score) [16]: 7.17
glycan array binding signal (z-score) [17]: 10.9
glycan array binding signal (z-score) [18]: -0.097
glycan array binding signal (z-score) [19]: 0.258
glycan array binding signal (z-score) (Man(a1-6)Man): -0.113
glycan array binding signal (z-score) (Man(b1-4)GlcNAc): -0.114
glycan array binding signal (z-score) (MurNAc(b1-4)GlcNAc): -0.116
glycan array binding signal (z-score) (Neu5Ac(a2-3)Gal): -0.119
glycan array binding signal (z-score) [20]: -0.114
glycan array binding signal (z-score) [21]: -0.116
glycan array binding signal (z-score) [22]: -0.115
glycan array binding signal (z-score) [23]: -0.108
glycan array binding signal (z-score) [24]: -0.114
glycan array binding signal (z-score) [25]: -0.117
glycan array binding signal (z-score) [26]: -0.036
glycan array binding signal (z-score) [27]: -0.071
glycan array binding signal (z-score) [28]: -0.106
glycan array binding signal (z-score) [29]: -0.115
glycan array binding signal (z-score) [30]: -0.114
glycan array binding signal (z-score) [31]: -0.107
glycan array binding signal (z-score) [32]: -0.108
glycan array binding signal (z-score) [33]: -0.112
